Some of the results follow.
These sequences were tested on PfAP2-HC AP2 domain (GST-tagged) (assay: gcPBM binding intensity (ln(normalized median fluorescence intensity)); higher = stronger DNA binding).
In short: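 The highest Masliner-normalised natural-log median intensity across replicate spots of either probe orientation is reported as binding intensity. GST-tagged P. falciparum DNA-binding domains expressed in E. coli were applied for 1 h to an Agilent 4 × 180k array of primer-extended double-stranded 36-bp intergenic genomic probes plus negative controls, and bound protein was detected with Alexa488 anti-GST antibody and scanned at 488 nm.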

First: AATTTATATAATTTTGTGCACAATATTCATGTATAT
Second: ATTTTATTAATTTGGTGTACTTAATTTATATTTTTC [XGTACX_site4947]
The “gcPBM binding intensity (ln)” value of the first is lower: 9.9 for the first, 9.96 for the second.

Going from “AAAAAAAAAAAATAATAAATAAATAAAAATAAATGA [CACACA_negctrl_site1623]” to “CCTCCATTAGATACTTGTACATAAAAGTTTTGATTG [XGTACX_site7428]”, the “gcPBM binding intensity (ln)” value falls from 9.6 to 9.47.

Compared with “AGACTTTGTACAAACACACACATGAACACAATATTA [CACACA_site1360]”, “AATCATAAAATCATATGTACACATTTTTCCTATGAT [XGTACX_site8799]” is lower in “gcPBM binding intensity (ln)” value: 10.7 for the first, 9.8 for the second.

Compared with “TATTATATGTAGTTGAGTACATATAAATACATATAT [XGTACX_site7933]”, “AAATAGTTAAAAAGGCGTACACATAAATAAATAAAT [XGTACX_site2096]” is higher in “gcPBM binding intensity (ln)” value: 9.62 for the first, 10.1 for the second.

Compared with “AATCTAATATAATGCACACATAAAAAAAAATCAAAC [CACACA_site3633]”, “GTATATATATATATATATATAATAGTAACTTTTACT [CACACA_negctrl_site608]” is lower in “gcPBM binding intensity (ln)” value: 9.9 for the first, 9.63 for the second.

First: TGTAGTCTGGAGAAAAGTACATAGTATCTGGTAACA [XGTACX_site4940]
Second: TTTTAATTTTAAAAATGTACTTTTATTATTTTTAAT [XGTACX_site8300]
The “gcPBM binding intensity (ln)” value of the first is lower: 9.47 for the first, 9.53 for the second.

Compared with “TAAAAATTAAAATGTTGTACAATGATAAAATATTAT [XGTACX_site7874]”, “ATTTATTTATATACAAGTACATAAAAAATTAACTTA [XGTACX_site6170]” is lower in “gcPBM binding intensity (ln)” value: 9.76 for the first, 9.33 for the second.

First: TATTTGATAAAAAAAAGTACTAGAATTTCGCTTTTG [XGTACX_site7754]
Second: CTCAACATATACGTAACACACATATAAATATAAATA [CACACA_site7749]
The “gcPBM binding intensity (ln)” value of the first is lower: 9.3 for the first, 9.89 for the second.

Going from “TAAATTGAAATATATTGTACATTATCAACTAAGGGA [XGTACX_site1635]” to “AAATTATAAAATAACTGTACCAATCCTTTTTTTTTA [XGTACX_site2229]”, the “gcPBM binding intensity (ln)” value falls from 9.59 to 9.51.

Going from “CATATATACCTATATACACACATATAGATTTATATA [CACACA_site6451]” to “TTATTCTACATATATGCATGTGTATGATCTGTTTAT [TGCATGCA_site782]”, the “gcPBM binding intensity (ln)” value falls from 9.78 to 9.75.

Going from “ATATAAATGATATGTACACACATTTATATATATAAA [CACACA_site3475]” to “AAAATAAAAAAAATGTAAAAGGTTAAAGTGAAATAT [CACACA_negctrl_site350]”, the “gcPBM binding intensity (ln)” value falls from 9.89 to 9.8.

First: TGATATTATCTCTTCACACACTCACATACAGACAAA [CACACA_site1246]
Second: TATATTTAATTATTTTGTACTCATATAAAGATGATG [XGTACX_site5488]
The “gcPBM binding intensity (ln)” value of the first is higher: 9.89 for the first, 9.19 for the second.

Compared with “AAAAAAAAAATATTTGAACACACGAGGATATATAAA [CACACA_site139]”, “CACACGCACGAACACACACACACACGCACGCACATA [CACACA_site6305]” is higher in “gcPBM binding intensity (ln)” value: 9.74 for the first, 10.7 for the second.

Compared with “TACAGACATACATACACACATACATACAGACATACA [CACACA_site1941]”, “TACATATTTACTATCACACACACGATATAAATAAAT [CACACA_site6701]” is higher in “gcPBM binding intensity (ln)” value: 10 for the first, 10.3 for the second.

Compared with “TTATTTTACTTTTATGCAACTAAAAATATTGCTATA [XGTACX_negctrl_site277]”, “AATAAAATTTGCGATGCACACAGAATAGCTAATATG [CACACA_site8983]” is higher in “gcPBM binding intensity (ln)” value: 9.6 for the first, 9.89 for the second.

First: CATATAGATTTGTTCACACACACACTAAAAAAAAAA [CACACA_site7212]
Second: ATATTCAATTCATACACACACAATTTAAGAATGATA [CACACA_site3883]
The “gcPBM binding intensity (ln)” value of the first is higher: 10.3 for the first, 9.99 for the second.

Compared with “ACAAATGTGAGAAAGACACACATATAATAAAAAACA [CACACA_site1156]”, “ATGAATAAAAAAGGTGGTACATATATATATATATAT [XGTACX_site7893]” is lower in “gcPBM binding intensity (ln)” value: 9.93 for the first, 9.7 for the second.

First: ATACATATATAATTATGTACGTATATTTTATATAAC [XGTACX_site4292]
Second: AAAATAATATAAATAATATAAGTGAGCATATATATA [TGCATGCA_negctrl_site527]
The “gcPBM binding intensity (ln)” value of the first is higher: 10 for the first, 9.67 for the second.

First: TGTCTTGTAAATTATTGTACTATTTAAAGTATAAAA [XGTACX_site7863]
Second: AAAATACCCGGACACACACACATATATATATATATT [CACACA_site6137]
The “gcPBM binding intensity (ln)” value of the first is lower: 9.18 for the first, 10.2 for the second.

First: TAACTTCAAACAAAATATGGTAAAAGTGGTTGAAAA [CACACA_negctrl_site42]
Second: GATGATTCAATTTATGCACACTAAAAATTAATTATA [CACACA_site4308]
The “gcPBM binding intensity (ln)” value of the first is higher: 9.6 for the first, 9.51 for the second.

Going from “CCATAGATATTTTATACACACATATAATATATTAAT [CACACA_site373]” to “ACCAAAAGGGGATGTAGTACAATATGATTAGAAGAA [XGTACX_site3773]”, the “gcPBM binding intensity (ln)” value rises from 9.79 to 9.84.

First: AAATAATATATTCCTTGTACTTATTTCAATGAATTC [XGTACX_site7719]
Second: ATAATCTGACAAATGTGTACACATATATATATATAT [XGTACX_site2379]
The “gcPBM binding intensity (ln)” value of the first is lower: 9.64 for the first, 9.89 for the second.

Going from “AAGAATCACCAAATATGTACACACCTTAACATGTTT [XGTACX_site4272]” to “CCACTGTATGAATGCACACATTCATAGAATTGCTAT [CACACA_site2676]”, the “gcPBM binding intensity (ln)” value rises from 9.89 to 9.91.

First: GATATGATTAACTTATGTTATTCTTGATGGTTTCTT [GTGCAC_negctrl_site411]
Second: TAATTTGTTAAAGGTTCACATATGGTATATACTTCT [XGTACX_negctrl_site292]
The “gcPBM binding intensity (ln)” value of the first is lower: 9.64 for the first, 9.75 for the second.

First: TAATAAGGTTACAACAAACACACAAAGGAATATACA [CACACA_site4089]
Second: TATCACAAAATATACTGTACATACAGGCAGTAATAT [XGTACX_site2487]
The “gcPBM binding intensity (ln)” value of the first is higher: 10.1 for the first, 9.7 for the second.

Going from “TTATAAAACCATGTCATCAACATAGGCACAAAAATG [CACACA_negctrl_site1160]” to “ATATGTACATATCTCATGCACTTAACAAAAAAAAAG [GTGCAC_site9898]”, the “gcPBM binding intensity (ln)” value falls from 9.63 to 9.56.

Going from “TATGTATAGATATATACACACTTCTGTGATACGAAA [CACACA_site7003]” to “TAAAGAGTCATGTGGTGTACCTGCTTCACCACATAT [XGTACX_site1288]”, the “gcPBM binding intensity (ln)” value falls from 9.66 to 9.4.

First: TATATATTCATAAAGTGTACATGTTTATATATATAT [XGTACX_site7585]
Second: TTATTTTTAATATCGGTGCAACAAAAAGGAAAAGAT [GTGCAC_site9482]
The “gcPBM binding intensity (ln)” value of the first is lower: 9.54 for the first, 9.81 for the second.

Source: the supplement of paper PMC11417369
